Results on 19 compounds are retold here after the supplement of paper PMC9174493.

The test system of assay [1] is A549-Dual. Description: NF-kB reporter (SEAP) activity, viability-corrected, relative to vehicle (fold change vs vehicle); higher = more activation of STING-IRF / NF-kB immune response reporter. The conditions noted are these: 10 µM.
Assay [2] deals with A549-Dual. The assay is described as follows: ISRE reporter (Lucia luciferase) activity, viability-corrected, relative to vehicle (fold change vs vehicle); higher = more activation of STING-IRF / NF-kB immune response reporter. To be noted: 10 µM.

Where a name gives a salt, the structure may show the parent alone. The list shows a part of the results. Single values of this set are uncertain. Values with irradiation are relative to irradiated vehicle.
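For NF-kB reporter (SEAP) activity, viability-corrected, relative to vehicle in this document: viability correction based on the alamar blue assay, with concentrations leaving 10% survival or less dropped.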

Consider `O=c1c(O)c(-c2ccc(O)cc2O)oc2cc(O)cc(O)c12` [Morin], for which the NF-kB reporter worked out at 0.423 in the assay with A549-Dual [1] (irradiation: 8 Gy/4 fr) and 0.579 with A549-Dual [1] (irradiation: none). Moreover, the ISRE reporter was determined as 0.273 in the assay on A549-Dual [2] (irradiation: 8 Gy/4 fr) and 0.332 with A549-Dual [2] (irradiation: none).
On the same counts, the results for `COc1cc2c(cc1OC)C1Cc3ccc(OC)c(OC)c3CN1CC2` (stereo unspecified) [Rotundine] are 0.694, 0.849, 0.719 and 0.779.
On the same counts, the results for `CC1(C)OC2COC3(COS(N)(=O)=O)OC(C)(C)OC3C2O1` (stereo unspecified) [Topiramate] are 0.767, 0.915, 0.765 and 0.798.
As for `CCCCCCCCCCCCCCCCCCOC(=O)CCCCCCCCCCCCCCC` [Lanolin], the NF-kB reporter in the assay on A549-Dual [1] (irradiation: 8 Gy/4 fr) came out at 0.911; in the assay with A549-Dual [1] (irradiation: none), 0.653. Moreover, the ISRE reporter in the assay on A549-Dual [2] (irradiation: 8 Gy/4 fr) stood at 0.961; in the assay with A549-Dual [2] (irradiation: none) it was 0.487.
On to `OCc1ccc(OC2OC(CO)C(O)C(O)C2O)cc1` (stereo unspecified) [Gastrodin], for which the NF-kB reporter in the assay on A549-Dual [1] (irradiation: 8 Gy/4 fr) is 0.724; in the assay on A549-Dual [1] (irradiation: none) it was 0.811. Also, the values for the ISRE reporter in the assay with A549-Dual [2] (irradiation: 8 Gy/4 fr) and with A549-Dual [2] (irradiation: none) were 0.702 and 0.78, respectively.
Regarding `CCC(C)C(=O)OC1CC(O)C=C2C=CC(C)C(CCC(O)CC(O)CC(=O)[O-])C21.[Na+]` (stereo unspecified) [Pravastatin sodium], the NF-kB reporter in the assay on A549-Dual [1] (irradiation: 8 Gy/4 fr) is 0.784; in the assay on A549-Dual [1] (irradiation: none), 0.74. For the same compound, the ISRE reporter in the assay on A549-Dual [2] (irradiation: 8 Gy/4 fr) was 0.91; in the assay with A549-Dual [2] (irradiation: none), 0.744.
As for `Cc1cc(N2CCN(C3CNC(C(=O)N4CCSC4)C3)CC2)n(-c2ccccc2)n1` (stereo unspecified) [Teneligliptin hydrobromide], the NF-kB reporter in the assay with A549-Dual [1] (irradiation: 8 Gy/4 fr) turned out to be 0.986; in the assay with A549-Dual [1] (irradiation: none), 0.91. Also, the ISRE reporter in the assay with A549-Dual [2] (irradiation: 8 Gy/4 fr) is 0.965; with A549-Dual [2] (irradiation: none) it was 1.08.
The like results for `COc1ccc2c(OC3CC4C(=O)NC5(C(=O)NS(=O)(=O)C6CC6)CC5/C=C\CCCCN(C)C(=O)C4C3)cc(-c3nc(C(C)C)cs3)nc2c1C` (stereo unspecified) [Simeprevir] were, in that order, 0.506, 1.47, 0.273 and 0.909.
On the same counts, the results for `CC(O)C1C(=O)N2C(C(=O)[O-])=C(SC3Cn4cnc[n+]4C3)C(C)C12` (stereo unspecified) [Biapenem] are 0.789, 1.66, 0.837 and 1.21.
In the case of `C#CCN(C)CCCOc1ccc(Cl)cc1Cl.Cl` [Clorgyline HCl], the NF-kB reporter in the assay on A549-Dual [1] (irradiation: 8 Gy/4 fr) is 1.17; with A549-Dual [1] (irradiation: none), 1.34. In addition, the values for the ISRE reporter in the assay on A549-Dual [2] (irradiation: 8 Gy/4 fr) and in the assay with A549-Dual [2] (irradiation: none) were 0.99 and 1.08, respectively.
The like results for `COC(=O)C1=C(C)NC(C)=C(C(=O)OCCN(C)Cc2ccccc2)C1c1cccc([N+](=O)[O-])c1` (stereo unspecified) [Nicardipine] were, in that order, 0.756, 0.919, 0.794 and 1.18.
The like results for `COc1cccc(-c2c(C)n(Cc3c(F)cccc3C(F)(F)F)c(=O)n(CC(NCCCC(=O)[O-])c3ccccc3)c2=O)c1F.[Na+]` (stereo unspecified) [Elagolix Sodium] were, in that order, 0.675, 1.09, 0.785 and 1.03.
On the same counts, the results for `CSCC[C@H](N)C(=O)O` [L-methionine] are 1.21, 2.18, 0.13 and 0.584.
On to `Clc1ccc2c(N3CCN(CCCN4CCN(c5ccnc6cc(Cl)ccc56)CC4)CC3)ccnc2c1.O=P(O)(O)O` [Piperaquine phosphate], for which the NF-kB reporter in the assay on A549-Dual [1] (irradiation: 8 Gy/4 fr) was determined as 1.08; with A549-Dual [1] (irradiation: none), 0.886. Besides, the ISRE reporter in the assay with A549-Dual [2] (irradiation: 8 Gy/4 fr) was found to be 1.02; in the assay with A549-Dual [2] (irradiation: none) it was 0.929.
On the same counts, the results for `COc1cc(CNC(=O)CCCC/C=C/C(C)C)ccc1O` [Capsaicin(Vanilloid)] are 0.625, 0.497, 0.546 and 0.461.
The like results for `NCC1OC(OC2C(N)CC(N)C(OC3OC(CO)C(O)C(N)C3O)C2O)C(N)CC1O.NCC1OC(OC2C(N)CC(N)C(OC3OC(CO)C(O)C(N)C3O)C2O)C(N)CC1O.O=S(=O)(O)O.O=S(=O)(O)O.O=S(=O)(O)O.O=S(=O)(O)O.O=S(=O)(O)O` (stereo unspecified) [Tobramycin sulfate] were, in that order, 0.932, 0.722, 0.864 and 0.658.
On the same counts, the results for `C#CC1(O)CCC2C3CCc4cc(O)ccc4C3CCC21C` (stereo unspecified) [Ethinyl Estradiol] are 1.2, 1.27, 1.21 and 2.15.
For `CS(=O)(=O)Nc1ccc([N+](=O)[O-])cc1Oc1ccccc1` [Nimesulide], the NF-kB reporter in the assay with A549-Dual [1] (irradiation: 8 Gy/4 fr) is 0.604; in the assay with A549-Dual [1] (irradiation: none), 0.759. The ISRE reporter in the assay with A549-Dual [2] (irradiation: 8 Gy/4 fr) is 0.515; with A549-Dual [2] (irradiation: none), 0.7.
The like results for `CS(=O)(=O)CCNCc1ccc(-c2ccc3ncnc(Nc4ccc(OCc5cccc(F)c5)c(Cl)c4)c3c2)o1` [Lapatinib] were, in that order, 0.743, 0.879, 0.811 and 1.82.
